Among the data in paper PMC9866381 are binding values, retold here.

Protein sequences, listed by entry. Tags and fused reporters are not part of them.
UniProt P70168: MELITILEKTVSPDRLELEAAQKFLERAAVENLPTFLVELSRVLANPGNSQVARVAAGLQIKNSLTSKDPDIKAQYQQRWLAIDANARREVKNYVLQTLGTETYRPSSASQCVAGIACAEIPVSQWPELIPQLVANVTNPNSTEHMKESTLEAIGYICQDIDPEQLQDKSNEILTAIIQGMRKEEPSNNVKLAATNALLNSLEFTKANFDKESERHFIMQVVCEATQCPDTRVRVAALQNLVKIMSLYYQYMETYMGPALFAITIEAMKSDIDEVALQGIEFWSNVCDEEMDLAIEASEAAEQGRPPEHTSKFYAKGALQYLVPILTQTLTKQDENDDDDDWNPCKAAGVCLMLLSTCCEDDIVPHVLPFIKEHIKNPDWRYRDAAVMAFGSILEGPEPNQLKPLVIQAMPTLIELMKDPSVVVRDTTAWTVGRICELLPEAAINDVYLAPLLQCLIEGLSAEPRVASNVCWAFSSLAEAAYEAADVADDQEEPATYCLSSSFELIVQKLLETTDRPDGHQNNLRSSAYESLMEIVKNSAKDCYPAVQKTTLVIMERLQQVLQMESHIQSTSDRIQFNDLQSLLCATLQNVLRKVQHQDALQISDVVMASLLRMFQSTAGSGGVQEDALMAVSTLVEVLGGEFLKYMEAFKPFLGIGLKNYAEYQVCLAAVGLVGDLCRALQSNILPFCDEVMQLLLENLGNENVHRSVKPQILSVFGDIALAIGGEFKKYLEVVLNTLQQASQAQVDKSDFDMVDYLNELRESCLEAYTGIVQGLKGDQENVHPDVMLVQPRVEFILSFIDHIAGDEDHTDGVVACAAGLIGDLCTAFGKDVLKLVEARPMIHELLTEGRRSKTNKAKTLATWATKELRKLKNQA
UniProt P37238: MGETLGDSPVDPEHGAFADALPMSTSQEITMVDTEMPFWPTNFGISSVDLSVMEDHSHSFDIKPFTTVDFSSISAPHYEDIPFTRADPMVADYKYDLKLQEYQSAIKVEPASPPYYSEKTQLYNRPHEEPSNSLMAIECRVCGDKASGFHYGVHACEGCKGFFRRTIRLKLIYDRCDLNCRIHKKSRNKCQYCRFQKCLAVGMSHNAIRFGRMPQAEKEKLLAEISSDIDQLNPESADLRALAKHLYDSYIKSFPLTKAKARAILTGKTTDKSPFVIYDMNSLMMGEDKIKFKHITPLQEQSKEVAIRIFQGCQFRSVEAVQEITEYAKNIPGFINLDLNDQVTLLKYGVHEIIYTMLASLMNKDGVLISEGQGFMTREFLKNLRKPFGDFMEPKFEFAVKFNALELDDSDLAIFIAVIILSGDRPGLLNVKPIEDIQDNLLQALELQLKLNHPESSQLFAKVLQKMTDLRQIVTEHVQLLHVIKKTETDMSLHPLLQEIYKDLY
UniProt P19785: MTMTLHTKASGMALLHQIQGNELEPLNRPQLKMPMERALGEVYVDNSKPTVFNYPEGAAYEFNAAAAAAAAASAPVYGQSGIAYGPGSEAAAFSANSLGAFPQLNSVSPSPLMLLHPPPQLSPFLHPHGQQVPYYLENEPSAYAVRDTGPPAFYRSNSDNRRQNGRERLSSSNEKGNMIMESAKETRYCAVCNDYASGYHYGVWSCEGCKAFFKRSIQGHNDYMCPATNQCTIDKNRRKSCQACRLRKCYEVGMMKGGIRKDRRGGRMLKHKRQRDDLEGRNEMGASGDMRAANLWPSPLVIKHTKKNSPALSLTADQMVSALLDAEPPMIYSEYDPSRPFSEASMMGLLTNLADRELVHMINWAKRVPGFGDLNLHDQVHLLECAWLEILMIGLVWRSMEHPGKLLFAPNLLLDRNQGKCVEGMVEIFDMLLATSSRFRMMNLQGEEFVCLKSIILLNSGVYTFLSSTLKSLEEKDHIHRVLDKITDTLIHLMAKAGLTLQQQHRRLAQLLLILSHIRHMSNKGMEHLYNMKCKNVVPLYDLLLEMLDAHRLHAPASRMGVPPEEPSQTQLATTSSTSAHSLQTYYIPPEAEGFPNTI
UniProt O88569: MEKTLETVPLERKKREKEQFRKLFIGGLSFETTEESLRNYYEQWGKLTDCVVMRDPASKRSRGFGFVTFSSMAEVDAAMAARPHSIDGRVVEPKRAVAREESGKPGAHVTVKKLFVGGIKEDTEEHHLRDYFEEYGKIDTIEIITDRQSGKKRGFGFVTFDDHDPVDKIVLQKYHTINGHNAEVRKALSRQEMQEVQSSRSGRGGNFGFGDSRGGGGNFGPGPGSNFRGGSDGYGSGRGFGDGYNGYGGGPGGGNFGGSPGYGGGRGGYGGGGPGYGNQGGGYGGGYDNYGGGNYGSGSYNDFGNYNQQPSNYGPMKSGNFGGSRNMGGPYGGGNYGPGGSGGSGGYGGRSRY
UniProt P46096: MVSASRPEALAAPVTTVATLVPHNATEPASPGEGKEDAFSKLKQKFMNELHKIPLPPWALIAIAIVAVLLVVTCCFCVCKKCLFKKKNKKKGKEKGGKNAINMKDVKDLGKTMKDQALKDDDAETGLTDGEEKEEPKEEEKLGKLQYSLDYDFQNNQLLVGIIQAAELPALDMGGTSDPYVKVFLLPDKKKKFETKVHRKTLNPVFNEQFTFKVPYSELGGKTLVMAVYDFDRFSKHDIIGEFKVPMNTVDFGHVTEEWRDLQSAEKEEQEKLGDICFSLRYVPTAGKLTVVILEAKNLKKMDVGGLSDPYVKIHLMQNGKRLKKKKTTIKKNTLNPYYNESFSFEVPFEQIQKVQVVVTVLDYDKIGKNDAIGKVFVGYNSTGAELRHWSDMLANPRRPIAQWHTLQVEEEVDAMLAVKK
UniProt P19091: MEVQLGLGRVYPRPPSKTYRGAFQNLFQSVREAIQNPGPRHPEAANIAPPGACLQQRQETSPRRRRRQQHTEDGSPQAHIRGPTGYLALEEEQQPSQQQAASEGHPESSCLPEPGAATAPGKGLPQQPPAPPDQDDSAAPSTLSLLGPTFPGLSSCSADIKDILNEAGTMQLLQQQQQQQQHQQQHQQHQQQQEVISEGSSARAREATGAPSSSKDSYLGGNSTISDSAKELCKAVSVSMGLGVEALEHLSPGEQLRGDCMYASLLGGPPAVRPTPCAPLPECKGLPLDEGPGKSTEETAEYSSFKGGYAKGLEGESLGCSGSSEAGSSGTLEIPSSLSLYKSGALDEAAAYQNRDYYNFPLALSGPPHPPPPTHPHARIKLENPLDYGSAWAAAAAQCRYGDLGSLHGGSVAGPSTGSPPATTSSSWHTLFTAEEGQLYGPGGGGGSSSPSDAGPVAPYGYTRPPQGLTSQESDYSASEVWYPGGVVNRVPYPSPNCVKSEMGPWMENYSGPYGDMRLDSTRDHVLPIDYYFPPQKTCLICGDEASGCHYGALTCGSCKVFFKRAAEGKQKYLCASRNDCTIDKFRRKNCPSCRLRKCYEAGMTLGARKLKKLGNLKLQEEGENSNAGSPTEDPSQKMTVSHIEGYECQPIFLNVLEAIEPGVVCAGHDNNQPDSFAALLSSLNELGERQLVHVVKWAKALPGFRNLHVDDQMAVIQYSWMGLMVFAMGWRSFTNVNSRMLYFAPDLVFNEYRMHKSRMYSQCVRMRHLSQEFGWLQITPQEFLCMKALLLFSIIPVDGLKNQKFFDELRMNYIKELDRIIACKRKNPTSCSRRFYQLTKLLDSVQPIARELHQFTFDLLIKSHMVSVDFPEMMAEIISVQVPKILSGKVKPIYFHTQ
UniProt P63017: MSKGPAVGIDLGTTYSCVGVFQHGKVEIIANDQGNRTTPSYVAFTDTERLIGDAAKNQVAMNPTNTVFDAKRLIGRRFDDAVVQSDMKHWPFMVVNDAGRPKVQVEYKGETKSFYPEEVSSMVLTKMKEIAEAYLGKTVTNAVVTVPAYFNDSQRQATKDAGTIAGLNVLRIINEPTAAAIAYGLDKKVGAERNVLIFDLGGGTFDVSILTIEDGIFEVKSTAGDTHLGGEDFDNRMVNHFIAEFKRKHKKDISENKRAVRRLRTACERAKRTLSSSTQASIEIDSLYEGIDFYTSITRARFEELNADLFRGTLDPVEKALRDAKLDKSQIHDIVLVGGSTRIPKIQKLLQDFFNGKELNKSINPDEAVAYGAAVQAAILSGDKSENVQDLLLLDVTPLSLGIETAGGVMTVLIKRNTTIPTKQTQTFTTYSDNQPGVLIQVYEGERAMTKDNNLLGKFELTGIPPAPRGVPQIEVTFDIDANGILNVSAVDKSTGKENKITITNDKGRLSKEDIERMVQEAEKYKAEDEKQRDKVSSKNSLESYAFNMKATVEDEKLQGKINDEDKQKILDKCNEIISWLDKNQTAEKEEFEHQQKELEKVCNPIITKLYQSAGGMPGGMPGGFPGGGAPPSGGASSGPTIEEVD
UniProt Q8BG05: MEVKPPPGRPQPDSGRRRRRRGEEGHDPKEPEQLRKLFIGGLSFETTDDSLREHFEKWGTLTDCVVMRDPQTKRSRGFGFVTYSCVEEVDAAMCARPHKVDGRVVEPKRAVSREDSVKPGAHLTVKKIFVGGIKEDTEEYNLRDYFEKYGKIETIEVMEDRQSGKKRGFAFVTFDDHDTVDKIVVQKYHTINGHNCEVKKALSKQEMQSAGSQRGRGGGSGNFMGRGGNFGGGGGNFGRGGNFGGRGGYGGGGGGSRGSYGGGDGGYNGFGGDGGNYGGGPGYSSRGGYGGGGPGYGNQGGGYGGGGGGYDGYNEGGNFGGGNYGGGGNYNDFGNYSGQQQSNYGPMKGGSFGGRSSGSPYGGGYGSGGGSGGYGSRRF
UniProt P49312: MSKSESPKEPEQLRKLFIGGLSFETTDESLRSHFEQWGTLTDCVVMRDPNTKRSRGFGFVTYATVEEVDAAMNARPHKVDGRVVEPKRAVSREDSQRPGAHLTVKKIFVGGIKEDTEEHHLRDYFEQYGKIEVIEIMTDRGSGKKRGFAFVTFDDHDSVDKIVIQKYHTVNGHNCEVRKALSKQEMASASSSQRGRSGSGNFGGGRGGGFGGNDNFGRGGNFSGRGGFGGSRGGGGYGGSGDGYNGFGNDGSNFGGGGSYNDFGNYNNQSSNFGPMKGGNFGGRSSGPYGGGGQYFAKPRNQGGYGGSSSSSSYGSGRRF

Results are given in words; binding and its absence hold for the method and conditions named. Binding seen in cells or lysates may run through a third protein. Some entries that bind do so weakly or less than the wild type.

The target in assay [1] is importin β1, endogenous (mouse (endogenous in cultured cortical neurons)) (UniProt P70168). Nature of the assay: proximity ligation.
Assay [2] has as its target T1, nucleoporin 93 kDa, endogenous (mouse (endogenous in cultured cortical neurons)) (UniProt Q8BJ71).
T1 sequence: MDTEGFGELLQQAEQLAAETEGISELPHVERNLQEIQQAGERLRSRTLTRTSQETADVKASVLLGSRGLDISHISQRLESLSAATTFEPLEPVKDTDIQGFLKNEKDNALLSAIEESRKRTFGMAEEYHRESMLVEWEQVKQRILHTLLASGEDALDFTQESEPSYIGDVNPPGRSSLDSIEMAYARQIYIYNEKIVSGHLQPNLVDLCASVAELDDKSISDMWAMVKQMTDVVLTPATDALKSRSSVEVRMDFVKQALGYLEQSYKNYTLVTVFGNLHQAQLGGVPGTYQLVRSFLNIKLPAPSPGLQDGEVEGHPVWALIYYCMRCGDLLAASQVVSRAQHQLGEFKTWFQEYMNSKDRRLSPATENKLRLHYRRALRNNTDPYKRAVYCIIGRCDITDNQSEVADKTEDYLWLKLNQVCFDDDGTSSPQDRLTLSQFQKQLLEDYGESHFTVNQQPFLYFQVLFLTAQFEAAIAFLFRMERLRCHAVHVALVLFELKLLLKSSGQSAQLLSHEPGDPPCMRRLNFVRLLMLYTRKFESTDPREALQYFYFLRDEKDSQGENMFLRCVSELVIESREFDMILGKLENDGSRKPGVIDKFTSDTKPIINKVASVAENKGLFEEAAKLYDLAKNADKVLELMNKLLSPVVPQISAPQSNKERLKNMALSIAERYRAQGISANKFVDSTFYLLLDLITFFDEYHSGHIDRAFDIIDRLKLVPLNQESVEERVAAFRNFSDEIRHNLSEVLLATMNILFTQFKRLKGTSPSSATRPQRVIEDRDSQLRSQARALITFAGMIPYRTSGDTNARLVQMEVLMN
Nature of the assay: proximity ligation.

Assay [3] has as its target peroxisome proliferator-activated receptor γ, endogenous (mouse (endogenous in cultured cortical neurons)) (UniProt P37238). Nature of the assay: proximity ligation.
The target in assay [4] is T2, DNA topoisomerase I, endogenous (mouse (endogenous in cultured cortical neurons)) (UniProt Q04750).
T2 sequence: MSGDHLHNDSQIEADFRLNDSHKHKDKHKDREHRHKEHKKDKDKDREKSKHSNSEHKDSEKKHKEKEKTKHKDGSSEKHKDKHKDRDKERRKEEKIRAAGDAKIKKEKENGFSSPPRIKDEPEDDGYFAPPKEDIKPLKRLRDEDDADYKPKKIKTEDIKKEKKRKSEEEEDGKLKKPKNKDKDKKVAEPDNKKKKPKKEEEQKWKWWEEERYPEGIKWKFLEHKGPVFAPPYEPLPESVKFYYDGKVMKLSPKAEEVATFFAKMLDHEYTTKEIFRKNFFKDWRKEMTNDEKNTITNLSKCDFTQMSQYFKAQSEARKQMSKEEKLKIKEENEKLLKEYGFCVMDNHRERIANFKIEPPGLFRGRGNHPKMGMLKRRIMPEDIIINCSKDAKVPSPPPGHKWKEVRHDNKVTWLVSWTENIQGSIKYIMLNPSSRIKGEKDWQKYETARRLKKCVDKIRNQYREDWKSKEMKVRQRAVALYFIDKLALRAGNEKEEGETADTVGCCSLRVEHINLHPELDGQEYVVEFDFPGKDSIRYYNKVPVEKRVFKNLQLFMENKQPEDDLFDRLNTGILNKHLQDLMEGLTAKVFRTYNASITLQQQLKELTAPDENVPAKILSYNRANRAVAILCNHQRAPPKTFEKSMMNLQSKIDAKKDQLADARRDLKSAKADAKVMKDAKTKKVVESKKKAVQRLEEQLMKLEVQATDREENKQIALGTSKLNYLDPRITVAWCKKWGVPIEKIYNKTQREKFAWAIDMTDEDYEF
In words: proximity ligation.

Assay [5] deals with estrogen receptor α, endogenous (mouse (endogenous in cultured cortical neurons)) (UniProt P19785). In words: proximity ligation.
Assay [6] addresses T3, splicing factor proline/glutamine-rich, endogenous (mouse (endogenous in cultured cortical neurons)) (UniProt Q8VIJ6).
T3 sequence: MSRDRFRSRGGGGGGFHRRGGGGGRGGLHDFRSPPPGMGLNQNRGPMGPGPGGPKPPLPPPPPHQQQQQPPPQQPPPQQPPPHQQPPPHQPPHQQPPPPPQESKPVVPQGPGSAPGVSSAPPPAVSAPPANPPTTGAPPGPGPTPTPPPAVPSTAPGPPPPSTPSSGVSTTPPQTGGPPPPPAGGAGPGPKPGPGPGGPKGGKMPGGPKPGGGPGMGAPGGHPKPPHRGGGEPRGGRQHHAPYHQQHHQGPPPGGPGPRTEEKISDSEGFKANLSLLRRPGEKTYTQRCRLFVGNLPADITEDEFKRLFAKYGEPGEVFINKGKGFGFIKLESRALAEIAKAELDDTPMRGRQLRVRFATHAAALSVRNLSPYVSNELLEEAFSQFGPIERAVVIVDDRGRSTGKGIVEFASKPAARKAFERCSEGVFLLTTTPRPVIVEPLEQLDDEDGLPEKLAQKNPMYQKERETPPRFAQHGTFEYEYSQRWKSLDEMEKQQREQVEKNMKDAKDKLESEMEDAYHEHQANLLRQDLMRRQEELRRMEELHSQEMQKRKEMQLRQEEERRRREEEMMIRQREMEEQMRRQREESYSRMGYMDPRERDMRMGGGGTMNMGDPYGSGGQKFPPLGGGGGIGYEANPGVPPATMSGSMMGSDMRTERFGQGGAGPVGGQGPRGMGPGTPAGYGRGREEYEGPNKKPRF
In words: proximity ligation; cultured mouse cortical neurons treated with vehicle DMSO or 10 µM DAPT (γ-secretase inhibitor), fixed; L1 antibody C-2 or ab12399 with an antibody against the partner; red dots per nucleus.

Assay [7] has as its target importin β1, endogenous (mouse (endogenous in cultured cortical neurons)) (UniProt P70168). Described as above.
In assay [8] the target is T4, non-POU domain containing octamer-binding protein, endogenous (mouse (endogenous in cultured cortical neurons)) (UniProt Q99K48).
T4 sequence: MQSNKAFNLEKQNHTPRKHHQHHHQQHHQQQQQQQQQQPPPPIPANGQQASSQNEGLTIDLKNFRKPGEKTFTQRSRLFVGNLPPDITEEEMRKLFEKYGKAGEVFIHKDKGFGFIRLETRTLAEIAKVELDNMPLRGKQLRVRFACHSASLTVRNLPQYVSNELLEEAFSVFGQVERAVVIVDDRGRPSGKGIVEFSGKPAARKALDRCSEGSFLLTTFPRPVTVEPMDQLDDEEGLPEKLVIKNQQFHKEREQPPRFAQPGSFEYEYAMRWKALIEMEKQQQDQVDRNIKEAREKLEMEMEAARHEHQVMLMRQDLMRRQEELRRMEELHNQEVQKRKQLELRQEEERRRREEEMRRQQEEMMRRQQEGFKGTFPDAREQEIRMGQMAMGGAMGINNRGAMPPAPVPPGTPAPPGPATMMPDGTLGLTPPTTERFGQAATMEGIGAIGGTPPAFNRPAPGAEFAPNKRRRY
The assay is described as above.

In assay [9] the target is T5, paraspeckle component 1, endogenous (mouse (endogenous in cultured cortical neurons)) (UniProt Q8R326).
T5 sequence: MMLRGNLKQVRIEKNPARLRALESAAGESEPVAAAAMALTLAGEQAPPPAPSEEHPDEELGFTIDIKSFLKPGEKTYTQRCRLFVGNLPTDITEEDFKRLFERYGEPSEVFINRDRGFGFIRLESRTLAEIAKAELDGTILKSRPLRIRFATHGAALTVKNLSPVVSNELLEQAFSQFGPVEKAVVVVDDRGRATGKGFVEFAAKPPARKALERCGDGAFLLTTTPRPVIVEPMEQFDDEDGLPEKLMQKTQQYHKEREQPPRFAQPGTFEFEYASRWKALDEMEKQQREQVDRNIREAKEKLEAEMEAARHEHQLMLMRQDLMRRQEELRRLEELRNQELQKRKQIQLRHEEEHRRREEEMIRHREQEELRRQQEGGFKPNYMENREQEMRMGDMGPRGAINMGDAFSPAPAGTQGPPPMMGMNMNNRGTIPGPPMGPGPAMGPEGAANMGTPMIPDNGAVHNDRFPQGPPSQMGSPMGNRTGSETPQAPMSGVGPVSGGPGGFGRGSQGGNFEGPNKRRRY
The description is as above.

The target of assay [10] is T1, nucleoporin 93 kDa, endogenous (mouse (endogenous in cultured cortical neurons)). The description is as above.
Assay [11] concerns the target heterogeneous nuclear ribonucleoprotein A2/B1, endogenous (mouse (endogenous in cultured cortical neurons)) (UniProt O88569). Described as above.
Assay [12] concerns the target synaptotagmin 1, endogenous (mouse (endogenous in cultured cortical neurons)) (UniProt P46096). Described as above.
In assay [13] the target is peroxisome proliferator-activated receptor γ, endogenous (mouse (endogenous in cultured cortical neurons)) (UniProt P37238). Described as above.
Assay [14] concerns the target androgen receptor, endogenous (mouse (endogenous in cultured cortical neurons)) (UniProt P19091). The assay is described as above.
Assay [15] has as its target T2, DNA topoisomerase I, endogenous (mouse (endogenous in cultured cortical neurons)). The assay is described as above.
For assay [16], the target named is heat shock cognate protein 71 kDa, endogenous (mouse (endogenous in cultured cortical neurons)) (UniProt P63017). The assay is described as above.
The target in assay [17] is estrogen receptor α, endogenous (mouse (endogenous in cultured cortical neurons)) (UniProt P19785). Described as above.
Assay [18] deals with T6, vitamin D receptor, endogenous (mouse (endogenous in cultured cortical neurons)) (UniProt P48281).
T6 sequence: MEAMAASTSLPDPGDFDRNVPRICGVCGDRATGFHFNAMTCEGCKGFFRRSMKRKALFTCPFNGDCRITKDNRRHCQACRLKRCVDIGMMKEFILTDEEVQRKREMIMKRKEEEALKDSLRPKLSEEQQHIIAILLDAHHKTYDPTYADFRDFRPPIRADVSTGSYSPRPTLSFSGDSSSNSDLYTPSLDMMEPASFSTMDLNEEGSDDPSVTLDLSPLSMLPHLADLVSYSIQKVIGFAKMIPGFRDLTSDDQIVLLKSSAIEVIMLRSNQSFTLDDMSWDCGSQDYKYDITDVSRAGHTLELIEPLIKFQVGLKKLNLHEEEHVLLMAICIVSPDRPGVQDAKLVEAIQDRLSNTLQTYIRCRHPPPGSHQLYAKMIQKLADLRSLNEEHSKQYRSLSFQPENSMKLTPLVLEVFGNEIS
Described as above.

Assay [19] concerns the target heterogeneous nuclear ribonucleoprotein A3, endogenous (mouse (endogenous in cultured cortical neurons)) (UniProt Q8BG05). The assay is described as above.
Assay [20] deals with heterogeneous nuclear ribonucleoprotein A1, endogenous (mouse (endogenous in cultured cortical neurons)) (UniProt P49312). The assay is described as above.

Turning to “cell adhesion molecule L1, endogenous in cortical neurons (from UniProt P11627 20-1260)”, the binding entry in assay [1], in assay [2], in assay [3], in [4], in assay [5] and in [6] was “binds” throughout. Further, the binding result in assay [7] is listed as “binds”; in assay [8] it was “binds”; in assay [9] it was “binds”; in assay [10] it was “binds”; in [11], “no binding”; in [12], “binds”. Further, the binding result in assay [13], in [14], in [15], in assay [16], in assay [17] and in [18] was “binds” throughout. Besides, the binding entry in assay [19] and in assay [20] was “no binding” each time.
